44 molecules from article PMC4336329 (PLoS ONE, 2015) can be followed below.

The campaign covered roughly 310,000 compounds. About 2,200 (0.71%) showed an effect of 50% or more. The effect is printed as a negative number. The list shows a part of the results.

In the assay the target is human ether-à-go-go-related gene (hERG) potassium channel (human, UniProt Q12809). Briefly: primary screen, population patch clamp on CHO cells stably expressing hERG.
human ether-à-go-go-related gene (hERG) potassium channel, sequence (Q12809 whole entry, looked up): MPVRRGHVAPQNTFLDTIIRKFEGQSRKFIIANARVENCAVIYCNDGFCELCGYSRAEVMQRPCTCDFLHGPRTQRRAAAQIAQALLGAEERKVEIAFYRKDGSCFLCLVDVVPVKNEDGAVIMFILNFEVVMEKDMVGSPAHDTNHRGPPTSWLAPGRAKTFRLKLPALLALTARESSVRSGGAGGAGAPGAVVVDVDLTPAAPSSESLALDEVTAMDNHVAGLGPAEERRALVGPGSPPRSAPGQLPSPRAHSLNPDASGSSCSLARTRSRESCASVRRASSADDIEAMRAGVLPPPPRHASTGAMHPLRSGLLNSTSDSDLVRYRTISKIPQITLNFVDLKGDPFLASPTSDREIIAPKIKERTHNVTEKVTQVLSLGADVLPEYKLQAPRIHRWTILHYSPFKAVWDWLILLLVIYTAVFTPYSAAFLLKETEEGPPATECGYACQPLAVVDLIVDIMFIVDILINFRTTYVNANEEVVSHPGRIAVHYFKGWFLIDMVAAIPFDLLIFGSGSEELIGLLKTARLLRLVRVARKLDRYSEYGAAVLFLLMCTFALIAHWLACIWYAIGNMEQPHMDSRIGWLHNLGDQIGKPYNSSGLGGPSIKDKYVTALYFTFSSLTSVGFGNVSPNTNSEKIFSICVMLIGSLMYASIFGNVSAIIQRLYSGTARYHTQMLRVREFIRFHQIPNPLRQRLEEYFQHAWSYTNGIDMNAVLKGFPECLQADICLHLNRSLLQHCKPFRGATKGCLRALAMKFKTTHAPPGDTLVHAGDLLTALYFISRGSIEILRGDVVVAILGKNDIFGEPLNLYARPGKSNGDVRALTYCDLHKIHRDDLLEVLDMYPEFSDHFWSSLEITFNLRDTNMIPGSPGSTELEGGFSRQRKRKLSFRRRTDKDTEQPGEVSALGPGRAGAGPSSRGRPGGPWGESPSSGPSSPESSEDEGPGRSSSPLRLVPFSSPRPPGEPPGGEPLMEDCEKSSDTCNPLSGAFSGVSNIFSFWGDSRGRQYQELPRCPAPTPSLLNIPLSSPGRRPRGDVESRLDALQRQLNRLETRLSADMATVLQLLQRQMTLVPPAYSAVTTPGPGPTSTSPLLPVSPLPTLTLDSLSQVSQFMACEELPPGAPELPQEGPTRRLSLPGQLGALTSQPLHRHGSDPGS
As to `CCCCOc1ccc(OCCNS(=O)(=O)N(C)C)cc1`, the “hERG current change (%, negative = inhibition) at 1uM” value is given as 0.16%. `COc1ccc(C(=O)O)cc1NC(=S)NC(=O)C(c1ccccc1)c1ccccc1`: the “hERG current change (%, negative = inhibition) at 1uM” value is recorded as 16.4%. Consider `COc1ccccc1-n1cc(CN2CCCC(CO)(Cc3cccc(Cl)c3)C2)cn1` (centres unmarked), for which the “hERG current change (%, negative = inhibition) at 1uM” value is -6.12%. As to `Cc1sc2nc(CSCC(=O)Nc3ccc(N4CCOCC4)cc3)[nH]c(=O)c2c1C`, the “hERG current change (%, negative = inhibition) at 1uM” value is 3.76%.

Turning to `O=C(Nc1ccncc1)C1CCCN(S(=O)(=O)c2cccc3cccnc23)C1` (centres unmarked), the “hERG current change (%, negative = inhibition) at 1uM” value is listed as 0.8%. The value for `COc1ccc(S(=O)(=O)Nc2cccc(NC(C)=O)c2)cc1` was 0.273%. Under `CC1CCC(=NNC(=O)Cc2ccccc2)CC1` (centres unmarked) stands 14.1%; under `Cc1ccc(S(=O)(=O)N2CCOCC2)cc1NC(=O)C1CC(=O)N(c2ccc3c(c2)OCCO3)C1` (centres unmarked), 19.8%. Under `Cc1ccccc1OCC(=O)Nc1nc(-c2ccncc2)cs1` stands 8.1%; under `COc1ccc(NC(=O)c2c(Cl)nc3ccccn23)cc1`, 1.32%. In the case of `Cc1cccc(N(C)S(=O)(=O)c2ccc3[nH]c(=O)c(=O)[nH]c3c2)c1`, the “hERG current change (%, negative = inhibition) at 1uM” value is listed as 4.77%. For the molecule `Cc1ccc(-c2cc3ccccc3nc2N2CCOCC2)cc1`, the “hERG current change (%, negative = inhibition) at 1uM” value is listed as 9.78%.

`COc1ccc(-c2nc3cc(NC(=O)Cc4ccc(OC)c(OC)c4)ccc3o2)cc1`: the “hERG current change (%, negative = inhibition) at 1uM” value came out at 3.36%. The value for `O=C(NCc1ccco1)C1CC(=O)N(c2ccc(F)cc2)C1` (centres unmarked) was -19.2%; that for `CC1CCN(c2nc3c(c(=O)[nH]c(=O)n3C)n2Cc2ccccc2Cl)CC1` was 8.48%; that for `O=C(Cn1nc(-c2ccccc2)ccc1=O)Nc1ccc(N2CCN(C(=O)c3cccs3)CC2)cc1` was 5.01%. Under `Cc1ccc(S(=O)(=O)Oc2ccccc2/C=N/NC(N)=S)cc1` stands 12.9%; under `Cc1cc(S(=O)(=O)N2CCN=C2c2ccccc2)c(Cl)cc1Cl`, 16.5%. The value for `Nc1cc(C(=O)O)ccc1Nc1ccc(F)c(F)c1` was 8.48%; that for `Brc1cccc(CNCc2ccncc2)c1` was 9.3%. Regarding `Clc1cccc(-c2nc(NCC3CCCO3)c3ccccc3n2)c1` (centres unmarked), the “hERG current change (%, negative = inhibition) at 1uM” value stood at 5.37%.

In the case of `CCCCN(C(=O)c1ccc(C#N)cc1)c1c(N)n(CCC)c(=O)[nH]c1=O`, the “hERG current change (%, negative = inhibition) at 1uM” value was found to be 10.5%. The value for `CC(=O)[C@H]1[C@@H]2C(=O)N(c3cccc(Cl)c3)C(=O)[C@@H]2[C@H]2c3ccccc3C=CN21` was 12.4%; that for `COc1ccc(Oc2cccc(Cl)c2CNC(=O)CSCC(=O)O)cc1` was 10%. The value for `COC(=O)c1ccccc1N1CCS(=O)(=O)CC1` was -8.61%; that for `CCCn1c(CCC(=O)O)ccc1-c1cccs1` was 8.19%; that for `COc1ccc(OC)c(NC(=O)CSc2nn3c(=O)c(C)nnc3s2)c1` was 14.5%. The value for `Cc1c(C)n(C)c2ccc(C(=O)NCCCN3CCN(c4ccccc4F)CC3)cc12` was -9.04%; that for `COc1ccc(C(=O)O)cc1Nc1cc(C)nc2ncnn12` was 10.6%. Consider `O=C(COC(=O)c1ccccc1F)NC1CCCC1`, for which the “hERG current change (%, negative = inhibition) at 1uM” value worked out at 11.7%. The value for `CCC(=O)N1N=C(c2ccc(C)o2)CC1c1ccc(Br)cc1` (centres unmarked) was 16.6%.

As to `O=C(OCc1nc2ccc(Cl)cc2n1CCO)c1ccc(O)cc1`, the “hERG current change (%, negative = inhibition) at 1uM” value was 10%.

In the case of `COc1cc2ncnc(NCc3cccc(F)c3F)c2cc1OC`, the “hERG current change (%, negative = inhibition) at 1uM” value turned out to be 13.3%. `CCc1ccc(-c2nc(CN3CCC(C(=O)NCCc4ccc(OC)c(OC)c4)CC3)c(C)o2)cc1`: the “hERG current change (%, negative = inhibition) at 1uM” value is given as -40%. For the molecule `Cc1cc(C)c(S(=O)(=O)N2CCCC2=O)c(C)c1N(C)S(C)(=O)=O`, the “hERG current change (%, negative = inhibition) at 1uM” value is reported as 14.7%. The value for `COc1ccc(C2=CC(=O)OC3(CCCC3)O2)cc1` was -2.47%; that for `CC(=O)N1CCCc2cc(S(=O)(=O)N3CCCC(C(=O)NCc4ccccc4)C3)ccc21` (centres unmarked) was 6.19%.

As to `Cc1cccc(OCCn2cc(/C=N/NC(=O)c3ccncc3)c3ccccc32)c1`, the “hERG current change (%, negative = inhibition) at 1uM” value is reported as 9.7%. The value for `COc1ccc(Nc2ccc(N3C(=O)CC(C)C3=O)cc2[N+](=O)[O-])cn1` (centres unmarked) was 9.69%; that for `S=c1[nH]nc(-c2cccnc2)n1/N=C/c1cccs1` was 12.5%.

In the case of `Cc1cc(C)c2ccc(C(=O)O)nc2c1O`, the “hERG current change (%, negative = inhibition) at 1uM” value worked out at 6.32%. The value for `CC(C)N1CCN(Cc2ccc(Sc3nncn3C)o2)CC1CCO` (centres unmarked) was 11.8%; that for `COc1cc(/C=C(\NC(=O)c2ccccc2)C(=O)Nc2nccs2)ccc1OC(C)=O` was 14.7%; that for `Br.CCCCCN1C2=NCCN2c2ccccc21` was -58.9%.
